Fold increase and viability data for 96 compounds are collected here from PubChem BioAssay AID1956 (SRMLSC, 2009).

Each structure is given as a SMILES string. Some of the results follow. The main result of the screen is listed elsewhere. These columns were measured beside it and carry no call.

As usually defined, the viability is a read-out of living cells in per cent, often relative to untreated cells.

The experiment can be described thus: compounds boosting herpes simplex virus growth – fold increase, host cell viability (AID 1956). Also: tested in PC3 cells. Conditions: HSV replication augmentation in cells; fold increase: measured here: primary screen fold increase 10 uM, at 10 µM, stronger effect = higher value; viability: measured here: host cell viability series, at 25 µM, stronger effect = lower value.
Consider `O=C1OC2(c3ccccc3)C3CCCC2C13`, for which the fold increase worked out at 1.46 and the viability was determined as 101%.

Take `CCc1cccc(Oc2nn[nH]n2)c1`: the fold increase is 1.39 and the viability stood at 92.1%.

Compound `CCCCc1cc(=O)oc2cc(OCc3cc(OC)c(OC)c(OC)c3)c(Cl)cc12` yielded a fold increase of 1.11. `CCC(NS(=O)(=O)c1ccc(C)cc1)C(=O)N1CCN(c2ccccn2)CC1` (stereo unspecified): the fold increase came out at 1.33 and the viability came out at 95.4%.

In the case of `CCOCCCNC(=S)N1CCCN(c2nc3cc(C)c(C)cc3cc2C#N)CC1`, the fold increase worked out at 1.53 and the viability was found to be 87%. Take `COc1ccc(-c2cc(-c3cccs3)c(C#N)c(SCC(=O)NCc3ccccc3)n2)cc1`: the fold increase stood at 1.1. With `O=C(CSc1cnc2ccccc2n1)c1ccc(F)cc1`, the fold increase came to 1.32.

With `N=c1c2c(ncn1CCCO)Oc1cc(O)ccc1C2c1ccccc1` (stereo unspecified), the fold increase was 1.45 and the viability is 92.8%. On the same counts, the results for `COc1ccc(OCCSc2nnc3c(Cl)cc(Cl)cn23)cc1` are 1.39 and 98.4%.

Turning to `CN(C)CCCn1c(-c2ccccc2)nc(=S)c2c1CCCC2`, the fold increase was 1.5 and the viability turned out to be 96.9%. On the same counts, the results for `CCN(CC)CCCOC(=O)c1ccc(OC)cc1O` are 1.34 and 98.5%. On the same counts, the results for `O=C(CSC1c2ccccc2C(=O)N1c1ccccc1)N1CCOCC1` (stereo unspecified) are 1.68 and 91.5%.

As for `CN(C)c1ccc(C2C=C(c3ccc(Cl)cc3OC(F)F)Nc3ncnn32)cc1` (stereo unspecified), the fold increase is 4.51 and the viability is 46.6%. Consider `CCOC(=O)CNC(=O)c1sc2ncnc(N3CCc4ccccc4C3)c2c1C`, for which the fold increase was 1.34 and the viability turned out to be 90.2%.

Regarding `O=C(NC1CCCC1)C(c1ccncc1)N(Cc1ccccc1)C(=O)Cc1cccs1` (stereo unspecified), the fold increase came out at 1.34 and the viability came out at 107%. On the same counts, the results for `C=CCn1c(N)c(-c2nc3ccccc3n2C)sc1=S` are 1.36 and 90.1%.

As for `O=S(=O)(Nc1nc2ccccc2nc1-[n+]1cccc(N=C([O-])c2ccccc2Cl)c1)c1ccccc1`, the fold increase is 3 and the viability came out at 87.1%. On the same counts, the results for `Cc1ccc(C(=O)CSc2nc(-c3ccccc3)ccc2C#N)cc1` are 3.31 and 90%. For `CC1Oc2ccccc2N(CC(=O)Nc2ccc3c(c2)OCO3)C1=O` (stereo unspecified) the same measures were 1.34 and 91.2%. For `CCCc1c(C(=O)O)cnn1-c1ccc(Cl)cc1` the same measures were 1.39 and 99.2%.

As for `COc1ccc(/C=N\NC(=S)SCN2C(=O)C3CCC(C)(C2=O)C3(C)C)cc1` (stereo unspecified), the fold increase was 1.04. For `Cc1cc(CNC(=O)[C@H]2C[C@@H]2[C@H](NP(=O)(c2ccccc2)c2ccccc2)c2ccccc2)nn1C`, the fold increase stood at 1.43 and the viability was found to be 104%. `COC(=O)CN1C(=O)S/C(=C/c2ccc(N3CCCCC3)o2)C1=O`: the fold increase was 1.64 and the viability stood at 94.3%. For `Cc1n[nH]c(C)c1N1C(=O)c2cccc3c(N4CCCCCC4)ccc(c23)C1=O` the same measures were 7.74 and 86.6%. `Nc1cnccc1C(=O)O` returned a fold increase of 1.49. With `O=C(NCc1ccc2c(c1)OCO2)C1CC(c2ccccc2O)=NO1` (stereo unspecified), the fold increase was determined as 1.37 and the viability came to 96.6%. Turning to `Cc1nn2c(-c3cccc(NC(=O)CSc4nc5ccccc5o4)c3)nnc2c2ccccc12`, the fold increase came to 1. `Cc1cc(NC(=O)/C(C#N)=C/c2ccco2)n(-c2ccccc2)n1`: the fold increase is 1.37 and the viability came to 104%. On the same counts, the results for `CCN1/C(=C/c2ccc3ccc(C)cc3[n+]2CC)Sc2ccccc21` are 5.71 and 45.2%. With `N#CC1=C(N)C(C#N)(C#N)[C@H](c2ccoc2)[C@H]2CN(Cc3ccccc3)CC=C12`, the fold increase turned out to be 2.27. For the compound `C=CCN1C(=O)/C(=C\C=C2\N(C)c3ccccc3C2(C)C)SC1=S`, the fold increase was 7.61 and the viability turned out to be 99.2%. As for `O=c1oc2ccc(Br)cc2cc1-c1nc2ccccc2o1`, the fold increase is 2.49 and the viability came out at 95.1%. On the same counts, the results for `CCOC(=O)c1cnn(-c2ccc(NS(=O)(=O)c3ccc(Cl)cc3)cc2)c1C(F)(F)F` are 1.34 and 98.5%. Consider `C=CC[n+]1c(/C=C2\C=Cc3cc(C)ccc3N2CC)ccc2ccccc21`, for which the fold increase was 1.61 and the viability amounted to 30.4%. With `O=[N+]([O-])c1ccc(N2CCN(S(=O)(=O)c3ccc(Cl)cc3)CC2)cc1NCc1cccnc1`, the fold increase was determined as 1.14. On the same count and under the same terms, next, `Cc1ccc(NC(=S)NCCC(c2ccccc2)c2ccccc2)c(C)c1`: 1.09.

In the case of `O=[N+]([O-])c1ccc(/C=N/Nc2ccc3ccccc3c2)o1`, the fold increase worked out at 2.03 and the viability is 91.6%. For `N#CC1=C(N)C(C#N)(C#N)[C@H](c2ccsc2)[C@H]2COCC=C12` the same measures were 1.32 and 89%. For the compound `COC(=O)c1ccccc1NC(=O)Oc1ccc(C(C)C)cc1`, the fold increase is 1.51 and the viability was determined as 97.6%. For `COc1cc(/C=N/N2C(=O)CSC2=S)cc(Br)c1O` the same measures were 2.89 and 90.7%. Turning to `CCN(CC)c1ccc2c(Cl)cc(=O)oc2c1`, the fold increase came out at 1.08 and the viability is 89.9%. Turning to `N#C/C(=C\c1c(N2CCC(C(N)=O)CC2)nc2ccccn2c1=O)S(=O)(=O)c1ccc(Cl)cc1`, the fold increase is 1.36 and the viability worked out at 96.2%. Turning to `C=CCN1C(=O)/C(=C/C=C2/N(CC)c3ccc(S(=O)(=O)N(C)C)cc3N2CC)SC1=S`, the fold increase was determined as 5.57. For `CCN(CC)c1ccc(/C=C(/C#N)c2nc3ccc(C)cc3[nH]2)c(OC(C)C)c1`, the fold increase is 6.39 and the viability turned out to be 70.4%.

Regarding `Cc1ccc(N=Cc2c(O)n(-c3nccs3)c(=O)c3ccccc23)c(C)c1`, the fold increase was 2.54 and the viability is 69.8%. For `CCOc1ccc(NC(=O)COc2nsnc2N2CCCCC2)cc1` the same measures were 1.45 and 102%. For `CCO/C=C1\SC(=S)N(c2ccc(Cl)cc2)C1=O` the same measures were 1.6 and 97.7%.

Compound `COc1cc(/C=C2/SC(=S)N(CC3CCCO3)C2=O)ccc1O` (stereo unspecified) displayed a fold increase of 9.28.

As to `CC(=O)c1sc(N/N=C\c2ccc(Br)cc2)nc1C`, the fold increase was 2.91 and the viability worked out at 94.1%.

In the case of `O=c1c2ccccc2ncn1-c1ccccc1F`, the fold increase amounted to 1.38 and the viability worked out at 103%. On the same counts, the results for `Cc1ccc(C(=O)N/N=C\c2cc(Br)c(Br)o2)cn1` are 1.4 and 85.1%. `CSc1ccc(C2C(C#N)=C(N)Oc3c2ccc(=O)c2c(C)oc(C)c32)cc1` (stereo unspecified): the fold increase was found to be 3.63 and the viability was 88.5%. As for `COc1ccc(C2C(C#N)=C(N)SC(N)=C2C#N)cc1OC`, the fold increase turned out to be 1.39 and the viability came out at 95.4%. For `N#Cc1cc(C(=O)c2cc(Cl)ccc2O)cn(-c2ccccc2)c1=O`, the fold increase was 1.52 and the viability amounted to 85.7%. Compound `Cc1ccc(O)c(C(=O)c2cc(C#N)c(=O)n(-c3nccs3)c2)c1` gave a fold increase of 2.21.

Take `Fc1ccc(-c2cc(C(F)(F)F)nc(-n3cncn3)n2)cc1`: the fold increase turned out to be 1.34 and the viability was determined as 94.9%. Turning to `CC(C)CC(C(=O)Nc1oc(-c2ccccc2)c(-c2ccccc2)c1C#N)N1C(=O)c2ccccc2C1=O` (stereo unspecified), the fold increase stood at 1.17. Same read-out and setting: next, `COc1cc(/C=C2/S/C(=N/S(=O)(=O)Cc3ccccc3)NC2=O)c([N+](=O)[O-])cc1OC`: 1.19.

As to `COc1ccc(NC(=O)Oc2cc(C)ccc2C(C)C)cc1`, the fold increase was found to be 1.33 and the viability came out at 95.7%.

Turning to `O=C(O)/C=C/C(=O)Nc1ccc(Cl)cc1C(=O)c1ccccc1`, the fold increase was 1.57 and the viability was found to be 93.8%. For the compound `O=C1C=C(Nc2cccc(O)c2)CC(c2ccco2)C1` (stereo unspecified), the fold increase came to 1.33 and the viability turned out to be 92.5%.

Turning to `Cc1cc(C)cc(NC(=O)C(OC(=O)C2=COCCO2)c2ccccc2)c1` (stereo unspecified), the fold increase is 1.41 and the viability amounted to 99.3%. For `COC(=O)c1cc(NC(=O)c2cccc(Cl)c2)c(=O)oc1/C=C/Nc1cc(C)cc(C)c1`, the fold increase worked out at 8.89. On to `Cc1cccn2c(=O)c(/C=C3\SC(=S)NC3=O)c(NCCCN3CCOCC3)nc12`, for which the fold increase came to 2.15 and the viability is 85.9%. Regarding `CC(C)C(C)NC(=O)CN1C(=O)NC2(CCCCCC2)C1=O` (stereo unspecified), the fold increase is 1.35 and the viability worked out at 95.4%. Consider `O=c1c2ccccc2sc2ccc(NCCCN3CCOCC3)cc12`, for which the fold increase stood at 1.45 and the viability was determined as 89.3%. On to `COC(=O)C1=NN(C(=O)c2cccc(Br)c2)C(O)(c2ccc(Cl)cc2)C1` (stereo unspecified), for which the fold increase was found to be 1.37 and the viability amounted to 101%.

The compound `CN1CC=C2C(C#N)=C(N)C(C#N)(C#N)[C@H](c3cccs3)[C@H]2C1` came in with a fold increase of 1.55.

Take `CCN(CC)S(=O)(=O)c1ccc(C)c(NC(=O)COc2ccc(Br)cc2Cl)c1`: the fold increase was 1.49 and the viability is 93.5%. Regarding `CSc1nc(N2CCOCC2)c2ccccc2n1`, the fold increase came out at 1.54 and the viability amounted to 93.3%. The compound `Cc1cc(N/N=C/c2ccc([N+](=O)[O-])o2)nc2ccccc12` yielded a fold increase of 1.54. Take `CCNc1ccc2noc3c2c1C(=O)c1ccccc1-3`: the fold increase came to 5.97 and the viability came to 79.5%. Turning to `CCSc1nnc2c(n1)OC(c1ccc(C(=O)O)cc1)N(C(C)=O)c1ccccc1-2` (stereo unspecified), the fold increase worked out at 1.32 and the viability worked out at 101%. On the same counts, the results for `Cc1cc(C)n(-c2ccc(C(=O)OCn3nnc4ccccc4c3=O)cc2)n1` are 1.45 and 94.2%.

As for `COc1cccc(C(=O)Nc2nc(-c3ccccc3)c(-c3ccccc3)o2)c1`, the fold increase was 1.34. Consider `CCN1/C(=C/c2ccc3cc(C)ccc3[n+]2C)Sc2ccc3sccc3c21`, for which the fold increase was determined as 2.12 and the viability was found to be 2.43%.

As for `N#Cc1c(C(F)(F)F)cc(-c2ccco2)nc1SCc1ccncc1`, the fold increase was 1.46 and the viability was 99.4%.

In turn, `COc1cc(N2CCCC2)c(OC)cc1/C=C1/NC(=S)NC1=O` registered a fold increase of 3.94.

With `Cc1ccc(CCC(=O)Nc2ncc(Cc3cccc(Cl)c3Cl)s2)o1`, the fold increase came to 1.67. Consider `O=C(CSc1ncn[nH]1)Nc1c(Br)cc([N+](=O)[O-])cc1Br`, for which the fold increase is 1.34 and the viability turned out to be 98.1%. Take `Cc1cc(-n2cnc(-c3cn[nH]c3C)n2)no1`: the fold increase was found to be 1.35 and the viability was 96.6%.

Take `CCc1ccc(C(=O)/C=C/NCc2ccc(F)cc2)cc1`: the fold increase is 1.34 and the viability amounted to 105%.

As for `Cc1cc(C)nc(NC2=NCC(=O)N2CCc2c[nH]c3ccccc23)n1`, the fold increase amounted to 1.21.

As to `CCOc1cc(/C=C2/SC(=S)NC2=O)ccc1OC(=O)c1ccco1`, the fold increase was found to be 2.99 and the viability came to 90.7%. On the same counts, the results for `CC(C)(C)c1cc(C(=O)NN)n(Cc2ccc(Cl)cc2Cl)n1` are 1.42 and 92.4%. Consider `Cc1ccn2c(Nc3ccc4c(c3)OCO4)c(-c3ccccn3)nc2c1`, for which the fold increase stood at 1.61. For the compound `Cn1c(Cn2c(=O)sc3ccccc32)nnc1SCC(=O)NCCc1ccccc1`, the fold increase was 1.37 and the viability came to 97.6%. For `CCn1c(C)c(C2=CCN(S(=O)(=O)c3ccc(C)cc3)CC2)c2ccccc21` the same measures were 1.38 and 88.1%. As for `CN(C)c1ccc(/C=C(/C#N)C(=O)NCc2ccccc2)o1`, the fold increase stood at 3.52. On to `COc1cc(/C=C(\C#N)c2nc3ccccc3n2C)cc(OC)c1O`, for which the fold increase worked out at 8.12 and the viability is 92.3%. The compound `COc1ccc(Nc2ccccc2N)cc1` came in with a fold increase of 1.78. Still for that read-out and setting: next, `N#Cc1c(-c2ccccc2F)cc(C2CC2)nc1SCC(=O)c1cccs1`: 2.33. As to `COCCCn1c(=O)/c(=C\c2ccccc2OC(F)F)s/c1=C(/C#N)C(=O)NC(C)C`, the fold increase came out at 1.86 and the viability stood at 96.8%. On the same counts, the results for `CN(C)S(=O)(=O)c1cccc(-c2nn(-c3ccccc3)cc2/C=C2\SC(=S)NC2=O)c1` are 1.34 and 68.3%. For `O=C(Nc1ccc2[nH]c(=S)sc2c1)Nc1ccccc1F`, the fold increase turned out to be 1.39.

As for `COCCNC(=O)C(=O)c1cc(C)n(-c2ccc([N+](=O)[O-])cc2)c1C`, the fold increase worked out at 1.6 and the viability came to 90.4%.
